# Assay results from PubChem BioAssay AID588855 (National Center for Advancing Translational Sciences (NCATS), 2011).
# “And” between values parts separate entries of the source, which are not always exact repeats. Equal entries are not always repeated. In all, about 410,000 compounds went through this assay and about 5,000 (1.2%) were called active. Inconclusive results, whose numbers are uncertain, are shown with a selection of clear calls. Calls follow the shape of the dose curve; as a rule, active = well fitted inhibition curve with a large enough effect; inconclusive = small, poorly fitted or top-dose-only effect; inactive = no such curve, though single readings can be large or run the other way. Potencies beside an inconclusive call are fits to weak or partial responses and may not hold up.
# Test: qHTS for Inhibitors of TGF-b; also: nearly all actives have a fitted effect of over 65% in size
# Conditions: HepG2 CAGA-GFP TGF-b/SMAD3 reporter, GFP fluorescence, 18 h, TGF-beta stimulated, 500 pg/mL final; series mostly up to 46.1 µM; activity, negative = inhibition: at the top concentration
# Summary of the method: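 Cell-based qHTS in HEPG2 carrying a CAGA-GFP Smad reporter; compounds added before 500 pg/mL final TGF-beta, 18 h incubation at 37 degrees C, GFP fluorescence quantified per cell by imaging cytometry.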
# % is scaled to controls: 0 for no effect and ±100 for the full control effect; potency is read from the fitted curve at half-maximal effect; tags tell the direction and shape of the fitted curve.
SMILES,Potency,"activity, negative = inhibition"
Cc1ccn2c(NC(=O)c3cccc(Cl)c3)c(-c3ccccc3)nc2c1,"inconclusive: 35.5 µM [inhibitor, partial curve, poor fit]",–
CC1(C)CC(C(N)=S)CCO1 (stereo unspecified),"inconclusive: 22.4 µM [inhibitor, single point]",–
CNc1oc(Cc2ccccc2)nc1S(=O)(=O)c1ccccc1,"inconclusive: 25.1 µM [inhibitor, single point]",–
O=C(CSc1nncn1-c1ccccc1)Nc1ccc(N2CCOCC2)cc1,"inconclusive: 35.5 µM [inhibitor, single point]",–
CN(CC(=O)O)c1ccc(/C=C2\C=Cc3ccccc32)cc1,"inconclusive: 3.55 µM [inhibitor, single point]",–
COc1ccc(CNC(=O)C2CCCN(S(=O)(=O)N(C)c3ccc(F)cc3)C2)cc1OC (stereo unspecified),"inconclusive: 11.2 µM [inhibitor, single point]",–
CCCc1cc(=O)oc2c3c(c4c(c12)OC(C)(C)C=C4)OC(C)C(C)C3O (stereo unspecified),"inconclusive: 35.5 µM [inhibitor, single point]",–
COCCN(CC(=O)NC1CCCCC1)C(=O)/C=C/C(=O)c1ccc(OC)cc1O,"inconclusive: 11.2 µM [inhibitor, partial curve, poor fit]",–
COc1ccc(-c2c(C)nc3c(-c4ccsc4)cnn3c2N)cc1,–,inactive: 16.3%
CCCn1c(C)cc(/C=C(\C#N)C(=O)O)c1C,–,inactive: -1.73%
COc1ccc(S(=O)(=O)c2c(N)n(Cc3ccco3)c3nc4ccccc4nc23)cc1,"inconclusive: 12.6 µM [inhibitor, single point]",–
COc1cc(-c2nc3ccc4ccccc4c3c3c2CCC3)cc(OC)c1OC,–,inactive: 6.3%
Cc1cccc(OCC(=O)NCC(=O)N/N=C/c2ccc(N(C)C)cc2)c1,"inconclusive: 1.58 µM [inhibitor, partial curve, poor fit]",–
Nn1c(=O)c2ccccc2n2c(SCc3ccccc3)nnc12,"inconclusive: 35.5 µM [inhibitor, single point]",–
COc1ccccc1C(NC(=O)C1CCN(CCOc2ccc3ccccc3c2)CC1)c1ccccn1 (stereo unspecified),active: 14.1 µM,–
CCn1c(=O)[nH]c(=O)c2c(N)c(C(=O)c3cc(F)ccc3F)sc21,active: 11.2 µM,–
Cn1cc(C(=O)c2ccc(Cl)cc2)cc1-c1nc2ccccc2n1C,–,inactive: -4.31%
CC(C)CC(=O)N1CCN(Cc2ccc3ccccc3c2)CC1,"inconclusive: 35.5 µM [inhibitor, single point]",–
Cc1ccc(-c2csc3ncnc(Oc4cccc5ccc(C)nc45)c23)cc1,–,inactive: 1.59%
COc1ccc(CN(Cc2ccco2)C(=O)COc2ccc(Cl)cc2C)cc1,–,inactive: 0%
Nc1cc(=O)[nH]c(=O)n1Cc1ccccc1,"inconclusive: 1.12 µM [inhibitor, partial curve]",–
CC(=O)N1CCc2c(sc3c2c(=O)n(-c2cccc(Cl)c2C)c(=O)n3Cc2ccccc2C)C1,–,inactive: -0.0358%

SMILES,Potency,"activity, negative = inhibition"
O=C(CCCCn1c(=O)[nH]c2ccsc2c1=O)N1CCN(c2cccc(C(F)(F)F)c2)CC1,active: 10 µM,–
C(=N\Nc1nc2ccccc2s1)/c1ccccn1,active: 3.55 µM,–
COc1cccc(CNS(=O)(=O)c2ccc3[nH]c4c(c3c2)CCCCC4)c1,"inconclusive: 25.1 µM [inhibitor, single point]",–
CC(C)C[C@@H](CN1CCC[C@@H]1CN1C(=O)C(=O)NC[C@@H]1Cc1ccccc1)N1C[C@H](Cc2ccccc2)N(CC2CCCCCC2)C(=O)C1=O,"inconclusive: 8.91 µM [inhibitor, partial curve, poor fit]",–
N=c1c2ccccc2nnn1-c1cccc(C(F)(F)F)c1,–,inactive: 0.815%
CCCCCCSc1cccc(-c2nc3cc(C)ccn3c2NC2CCCCC2)c1,"inconclusive: 35.5 µM [inhibitor, single point]",–
CN(C)S(=O)(=O)c1ccc(N2CCOCC2)c(C(=O)NCc2ccc3c(c2)OCO3)c1,–,inactive: -1.36%
CCOC(=O)c1c(-c2ccccc2)c2cc(OC)ccc2n1CCCN(C)C,"inconclusive: 35.5 µM [inhibitor, single point]",–
COc1ccc2c(CNCCc3ccccc3C)c(C(=O)O)n(Cc3ccccc3C)c2c1,"inconclusive: 6.31 µM [inhibitor, single point]",–
CCCCc1ccc(NC2=NCC(=O)N2CCc2ccccc2)cc1,"inconclusive: 6.31 µM [inhibitor, single point]",–
Cc1ccccc1C(=O)Nc1cccc(OCc2cc(=O)n3c4c(sc3n2)CCCC4)c1,–,inactive: 6.13%
Cc1ccc(C)c(CNS(=O)(=O)c2ccc3c(c2)C(C)(C)C(=O)N3C)c1,inactive,–
COc1ccc(NC(=O)Cn2cc(S(=O)(=O)N3CCC(C)CC3)c3ccccc3c2=O)cc1Cl,"inconclusive: 2.82 µM [inhibitor, full curve]",–
COc1ccc(Cn2ccnc2SCC(=O)Nc2ccc3c(c2)OCO3)cc1,"inconclusive: 35.5 µM [inhibitor, single point]",–
O=C(/C=C/c1ccco1)N1CCc2ccccc21,"inconclusive: 22.4 µM [inhibitor, single point]",–
CCOc1ccc(NC(=S)c2ccncc2)cc1,–,inactive: -8.58%
C=CCCCCCCCCc1nc(SCC(C)=O)n[nH]1,"inconclusive: 35.5 µM [inhibitor, single point]",–
COc1ccc(CC(=O)Nc2nnc(C(C)C)s2)cc1OC,–,inactive: -18.7%
COc1ccc(C(=O)NCC(c2cccs2)N2CCc3ccccc32)c(OC)c1 (stereo unspecified),"inconclusive: 25.1 µM [inhibitor, single point]",–
Cc1cc(N/N=C/c2ccc(O)cc2)c2cccc(C)c2n1,"inconclusive: 15.8 µM [inhibitor, single point]",–
N#C/C(=C\c1ccc(O)c(O)c1)C(=O)NCCCc1ccccc1,–,inactive: -1.79%
COc1ccc([N+](=O)[O-])c(C=CC(=O)c2ccccn2)c1,"inconclusive: 35.5 µM [inhibitor, single point]",–

SMILES,Potency,"activity, negative = inhibition"
O=S(=O)(c1ccccc1)N1CCC(O)(CSc2ccc(Cl)cc2)CC1,"inconclusive: 22.4 µM [inhibitor, single point]",–
CCN(CC)C(=O)C1=C(C)N(CCC2=CCCCC2)C(=O)C(CC(=O)NCc2cccc3ccccc23)C1 (stereo unspecified),"inconclusive: 35.5 µM [inhibitor, single point]",–
CCN1C(=O)C(C(=O)c2ccccc2)SC1=S (stereo unspecified),"inconclusive: 17.8 µM [inhibitor, single point]",–
Cc1cc(/C=C2\C(=O)NN(c3ccccc3)C2=O)c(C)n1-c1ccccc1O,"inconclusive: 22.4 µM [inhibitor, single point]",–
Cc1cc(=O)n(CCCO)c(O)c1C#N,"inconclusive: 0.631 µM [inhibitor, full curve, poor fit]",–
COc1ccc(N2C(=O)/C(=C/c3ccc([N+](=O)[O-])cc3)N=C2C)cc1,"inconclusive: 3.55 µM [inhibitor, single point]",–
Cc1cc(=O)oc2cc(O[C@@H]3O[C@H](CO)[C@H](O)[C@H](O)[C@H]3O)ccc12,–,inactive: 2.97%
CCOC(=O)C(Cc1ccc(NC(=O)/C(=C/c2ccccc2)NC(=O)c2ccccc2)cc1)N1C(=O)c2ccccc2C1=O (stereo unspecified),–,inactive: -1.51%
O=C(Nc1nc(-c2ccccc2)cs1)C1CCCCN1S(=O)(=O)c1ccc(Cl)cc1 (stereo unspecified),"inconclusive: 28.2 µM [inhibitor, single point]",–
CCN1C(=O)CCN(C2CCCC2)c2nc(Nc3ccc(C(=O)NC4CCN(C)CC4)cc3OC)ncc21,"inconclusive: 35.5 µM [inhibitor, single point]",–
O=C(COC(=O)c1ccc[n+]([O-])c1)Nc1ccc([N+](=O)[O-])cc1C(F)(F)F,"inconclusive: 28.2 µM [inhibitor, single point]",–
CCOc1ccc(NC(=O)c2oc3ccccc3c2NC(=O)C2CCCCC2)cc1,"inconclusive: 0.126 µM [inhibitor, full curve, poor fit]",–
CCCN1CCN(C(=O)C2CCN(S(=O)(=O)c3c(C)noc3/C=C/c3ccc(C)cc3)CC2)CC1,"inconclusive: 15.8 µM [inhibitor, single point]",–
COCCNC(=O)C1(C)CCCN(C(=O)c2cnc3ccccc3n2)C1 (stereo unspecified),–,inactive: -3.36%
Cc1oc2c(c1C(=O)Nc1ccc(F)c(F)c1)C1=NCCN1C=N2,"inconclusive: 1.12 µM [inhibitor, full curve]",–
O=C(O)CN1C(=O)SC(Nc2ccc(Cl)cc2)C1=O (stereo unspecified),"inconclusive: 3.98 µM [inhibitor, full curve, poor fit]",–
COc1ccc(CCN(C)C(=O)c2cccc(S(=O)(=O)N3CCN(c4ccc(F)cc4)CC3)c2)cc1OC,active: 11.2 µM,–
CCN(C(=O)COC(=O)c1ccc(C)c(S(=O)(=O)N2CCOCC2)c1)C1CCS(=O)(=O)C1 (stereo unspecified),"inconclusive: 5.62 µM [inhibitor, single point]",–
O=C(CN(Cc1ccccc1)S(=O)(=O)c1ccc2c(c1)OCCO2)N/N=C/c1cccc(Br)c1,"inconclusive: 35.5 µM [inhibitor, single point]",–
Cc1cn(-c2cc(C(=O)Nc3ccc(C)c(NC(=O)C(=O)c4c[nH]c5ccccc45)c3)cc(C(F)(F)F)c2)cn1,"inconclusive: 1.26 µM [inhibitor, partial curve, poor fit] and inconclusive: 28.2 µM [inhibitor, single point]",–
O=[N+]([O-])c1cc(S(=O)(=O)Nc2ccccc2)ccc1-n1nnc2ccccc21,–,inactive: 0%
CC1CCCN(S(=O)(=O)c2ccc3[nH]c4c(c3c2)CCCC4)C1 (stereo unspecified),"inconclusive: 31.6 µM [inhibitor, single point]",–
